# Laboratory results: the supplement of paper PMC8728848
# The list shows a part of the results.
# B1: MIG/CXCL9 (Homo sapiens) (protein)
# chain: TPVVRKGRCSCISTNQGTIHLQSLKDLKQFAPSPSCEKIEIIIATLKNGVQTCLNPDSADVKELIKKTEKQVSQKKKQKNGKKHQKKKVLKVRKSQRSRQKKTT
# Experiments:
# Assay in all cases: glycan array binding signal (z-score within array); higher = stronger binding
# Conditions in all cases: glycan notation: IUPAC condensed, linker removed
# Gal(a1-4)Gal(b1-4)Glc = biological target: Gal(a1-4)Gal(b1-4)Glc
# Method in brief: (§1)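 Glycan array binding is given as a within-array Z-score, which can be read as non-binding when negative. The arrays, 3228 of them, came from the Consortium for Functional Glycomics database and were retained only where the protein sequence was available. Z-scores were averaged across arrays of the same protein sequence at different concentrations or buffers and across linkers.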
# Gal(a1-4)Gal(b1-4)GlcNAc = biological target: Gal(a1-4)Gal(b1-4)GlcNAc
# Method in brief: as §1
# Gal(a1-4)GlcNAc = biological target: Gal(a1-4)GlcNAc
# Method in brief: as §1
# Gal(a1-6)Glc = biological target: Gal(a1-6)Glc
# Method in brief: as §1
# Gal(b1-2)Gal = biological target: Gal(b1-2)Gal
# Method in brief: as §1
# Gal(b1-3)Gal = biological target: Gal(b1-3)Gal
# Method in brief: as §1
# Gal(b1-3)GalNAc = biological target: Gal(b1-3)GalNAc
# Method in brief: as §1
# [1] = biological target: Gal(b1-3)GalNAc(b1-3)Gal(a1-4)Gal(b1-4)Glc
# Method in brief: as §1
# [2] = biological target: Gal(b1-3)GalNAc(b1-4)Gal(b1-4)Glc
# Method in brief: as §1
# [3] = biological target: Gal(b1-3)GalNAc(b1-4)[Neu5Ac(a2-3)]Gal(b1-4)Glc
# Method in brief: as §1
# Gal(b1-3)GlcNAc = biological target: Gal(b1-3)GlcNAc
# Method in brief: as §1
# [4] = biological target: Gal(b1-3)GlcNAc(b1-3)Gal(b1-4)Glc
# Method in brief: as §1
# [5] = biological target: Gal(b1-3)GlcNAc(b1-3)Gal(b1-4)GlcNAc
# Method in brief: as §1
# [6] = biological target: Gal(b1-3)[Fuc(a1-4)]GlcNAc
# Method in brief: as §1
# [7] = biological target: Gal(b1-3)[Fuc(a1-4)]GlcNAc(b1-3)Gal(b1-4)GlcNAc
# Method in brief: as §1
# [8] = biological target: Gal(b1-3)[Fuc(a1-4)]GlcNAc(b1-3)Gal(b1-4)[Fuc(a1-3)]GlcNAc
# Method in brief: as §1
# [9] = biological target: Gal(b1-3)[GlcNAc(b1-6)]GalNAc
# Method in brief: as §1
# [10] = biological target: Gal(b1-3)[Neu5Ac(a2-6)]GalNAc
# Method in brief: as §1
# [11] = biological target: Gal(b1-3)[Neu5Ac(a2-6)]GlcNAc(b1-6)Gal(b1-4)Glc
# Method in brief: as §1
# [12] = biological target: Gal(b1-3)[Neu5Ac(b2-6)]GalNAc
# Method in brief: as §1
# [13] = biological target: Gal(b1-4)GalNAc(a1-3)[Fuc(a1-2)]Gal(b1-4)GlcNAc
# Method in brief: as §1
# [14] = biological target: Gal(b1-4)GalNAc(b1-3)[Fuc(a1-2)]Gal(b1-4)GlcNAc
# Method in brief: as §1
# Gal(b1-4)Glc = biological target: Gal(b1-4)Glc
# Method in brief: as §1
# Gal(b1-4)Glc6S = biological target: Gal(b1-4)Glc6S
# Method in brief: as §1
# Gal(b1-4)GlcNAc = biological target: Gal(b1-4)GlcNAc
# Method in brief: as §1
# [15] = biological target: Gal(b1-4)GlcNAc(b1-2)Man(a1-3)[Gal(b1-4)GlcNAc(b1-2)Man(a1-6)]Man(b1-4)GlcNAc(b1-4)GlcNAc
# Method in brief: as §1
# [16] = biological target: Gal(b1-4)GlcNAc(b1-3)Gal(b1-4)Glc
# Method in brief: as §1
# [17] = biological target: Gal(b1-4)GlcNAc(b1-3)Gal(b1-4)GlcNAc
# Method in brief: as §1
# [18] = biological target: Gal(b1-4)GlcNAc(b1-3)Gal(b1-4)GlcNAc(b1-3)Gal(b1-4)GlcNAc
# Method in brief: as §1
# [19] = biological target: Gal(b1-4)GlcNAc(b1-3)Gal(b1-4)[Fuc(a1-3)]GlcNAc(b1-3)Gal(b1-4)[Fuc(a1-3)]GlcNAc
# Method in brief: as §1
# [20] = biological target: Gal(b1-4)GlcNAc(b1-3)GalNAc
# Method in brief: as §1
# [21] = biological target: Gal(b1-4)GlcNAc(b1-3)[Gal(b1-4)GlcNAc(b1-6)]GalNAc
# Method in brief: as §1
# [22] = biological target: Gal(b1-4)GlcNAc(b1-6)Gal(b1-4)GlcNAc(b1-6)GalNAc
# Method in brief: as §1
# [23] = biological target: Gal(b1-4)GlcNAc(b1-6)GalNAc
# Method in brief: as §1
# [24] = biological target: Gal(b1-4)GlcNAc(b1-6)[Gal(b1-3)]GalNAc
# Method in brief: as §1
# Gal3S(b1-3)GalNAc = biological target: Gal3S(b1-3)GalNAc
# Method in brief: as §1
# Gal3S(b1-3)GlcNAc = biological target: Gal3S(b1-3)GlcNAc
# Method in brief: as §1
# [25] = biological target: Gal3S(b1-3)[Fuc(a1-4)]GlcNAc
# Method in brief: as §1
# Gal3S(b1-4)Glc = biological target: Gal3S(b1-4)Glc
# Method in brief: as §1
# Gal3S(b1-4)Glc6S = biological target: Gal3S(b1-4)Glc6S
# Method in brief: as §1
# Gal3S(b1-4)GlcNAc = biological target: Gal3S(b1-4)GlcNAc
# Method in brief: as §1
# Gal3S(b1-4)GlcNAc6S = biological target: Gal3S(b1-4)GlcNAc6S
# Method in brief: as §1
# Gal3S6S(b1-4)GlcNAc = biological target: Gal3S6S(b1-4)GlcNAc
# Method in brief: as §1
# Gal3S6S(b1-4)GlcNAc6S = biological target: Gal3S6S(b1-4)GlcNAc6S
# Method in brief: as §1
# Gal4S(b1-4)GlcNAc = biological target: Gal4S(b1-4)GlcNAc
# Method in brief: as §1
binder,measurement,setting,value
B1,glycan array binding signal (z-score),Gal(a1-4)Gal(b1-4)Glc,0.15
same,glycan array binding signal (z-score),Gal(a1-4)Gal(b1-4)GlcNAc,-0.143
same,glycan array binding signal (z-score),Gal(a1-4)GlcNAc,-0.24
same,glycan array binding signal (z-score),Gal(a1-6)Glc,0.289
same,glycan array binding signal (z-score),Gal(b1-2)Gal,-0.257
same,glycan array binding signal (z-score),Gal(b1-3)Gal,-0.318
same,glycan array binding signal (z-score),Gal(b1-3)GalNAc,0.088
same,glycan array binding signal (z-score),[1],-0.322
same,glycan array binding signal (z-score),[2],-0.345
same,glycan array binding signal (z-score),[3],-0.331
same,glycan array binding signal (z-score),Gal(b1-3)GlcNAc,-0.174
same,glycan array binding signal (z-score),[4],-0.383
same,glycan array binding signal (z-score),[5],-0.35
same,glycan array binding signal (z-score),[6],-0.301
same,glycan array binding signal (z-score),[7],-0.441
same,glycan array binding signal (z-score),[8],-0.501
same,glycan array binding signal (z-score),[9],-0.311
same,glycan array binding signal (z-score),[10],-0.165
same,glycan array binding signal (z-score),[11],-0.348
same,glycan array binding signal (z-score),[12],-0.32
same,glycan array binding signal (z-score),[13],-0.412
same,glycan array binding signal (z-score),[14],-0.339
same,glycan array binding signal (z-score),Gal(b1-4)Glc,-0.287
same,glycan array binding signal (z-score),Gal(b1-4)Glc6S,0.015
same,glycan array binding signal (z-score),Gal(b1-4)GlcNAc,-0.362
same,glycan array binding signal (z-score),[15],-0.436
same,glycan array binding signal (z-score),[16],-0.02
same,glycan array binding signal (z-score),[17],-0.3
same,glycan array binding signal (z-score),[18],-0.479
same,glycan array binding signal (z-score),[19],-0.446
same,glycan array binding signal (z-score),[20],-0.437
same,glycan array binding signal (z-score),[21],-0.45
same,glycan array binding signal (z-score),[22],1.71
same,glycan array binding signal (z-score),[23],-0.465
same,glycan array binding signal (z-score),[24],-0.424
same,glycan array binding signal (z-score),Gal3S(b1-3)GalNAc,-0.437
same,glycan array binding signal (z-score),Gal3S(b1-3)GlcNAc,-0.159
same,glycan array binding signal (z-score),[25],-0.071
same,glycan array binding signal (z-score),Gal3S(b1-4)Glc,-0.028
same,glycan array binding signal (z-score),Gal3S(b1-4)Glc6S,1.68
same,glycan array binding signal (z-score),Gal3S(b1-4)GlcNAc,-0.23
same,glycan array binding signal (z-score),Gal3S(b1-4)GlcNAc6S,2.28
same,glycan array binding signal (z-score),Gal3S6S(b1-4)GlcNAc,2.35
same,glycan array binding signal (z-score),Gal3S6S(b1-4)GlcNAc6S,5.28
same,glycan array binding signal (z-score),Gal4S(b1-4)GlcNAc,-0.245
